# Measurements reported in PubChem BioAssay AID588855 (National Center for Advancing Translational Sciences (NCATS), 2011).
# “And” between values parts separate entries of the source, which are not always exact repeats. Equal entries are not always repeated. About 5,000 (1.2%) of roughly 410,000 compounds were called active. Inconclusive means that the source gave no clear call. Such entries were picked first, then a sample of the others. Calls come from the whole dose curve; as a rule, active = well fitted inhibition curve with a large enough effect; inconclusive = small, poorly fitted or top-dose-only effect; inactive = no such curve, though single readings can be large or run the other way. A potency beside an inconclusive call is a rough fit, not a confirmed value.
# Assay: qHTS for Inhibitors of TGF-b; note: nearly all actives have a fitted effect of over 65% in size
# Conditions: HepG2 CAGA-GFP TGF-b/SMAD3 reporter, GFP fluorescence, 18 h, TGF-beta stimulated, 500 pg/mL final; series mostly up to 46.1 µM; activity, negative = inhibition: at the top concentration
# Procedure, shortened: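 HEPG2 CAGA-GFP cells (1000/well, DMEM with 1% FBS) were pre-incubated 2 h at 37 degrees C, given compound by pin tool, then stimulated with TGF-beta at 500 pg/mL final for 18 h before per-cell GFP fluorescence imaging.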
# % is set by controls: 0 for no effect and ±100 for the full control effect; potency is the fitted concentration of half-maximal effect; tags give direction and shape of the fitted curve.
Compound,Potency,"activity, negative = inhibition"
COc1ccc(-c2cc(=O)n(-c3ccc([N+](=O)[O-])cc3)[nH]2)cc1,"inconclusive: 3.16 µM [inhibitor, partial curve, poor fit]",
Fc1ccc(NC(=S)N2CCCN(c3ccc(C(F)(F)F)cn3)CC2)c(F)c1,"inconclusive: 1.78 µM [inhibitor, partial curve]",
CCc1nnc(NC(=O)CSc2nccn2-c2cccc(C)c2)s1,,inactive: -0.396%
COc1ccc(C2NC(=O)CCC2[N+](=O)[O-])cc1 (configuration not stated),,inactive: 2.98%
O=C(CSc1n[nH]c(-c2ccccc2Cl)n1)N1CCN(c2ccccc2F)CC1,"inconclusive: 17.8 µM [inhibitor, single point]",
O=C1CSCC(=O)N1Cc1ccc(Cl)c(Cl)c1,,inactive: 6.22%
Cc1ncc(CO)c2c1Oc1nc(-c3ccccc3)nc(SCC(=O)Nc3cccc(C(F)(F)F)c3)c1C2,"inconclusive: 0.112 µM [inhibitor, full curve]",
CCn1cc(C(=O)NCc2ccccc2Cl)c(=O)c2cc(S(=O)(=O)N3CCCCC3)ccc21,"inconclusive: 31.6 µM [inhibitor, single point]",
OC(Cc1ccccc1Br)c1ncc(-c2cccc(C(F)(F)F)c2)[nH]1 (configuration not stated),"inconclusive: 28.2 µM [inhibitor, single point]",
CCCC(=O)O[C@@H]1C[C@@H](C)N(C(=O)c2ccccc2)c2ccc(C)cc21,"inconclusive: 35.5 µM [inhibitor, single point]",
O=S(=O)(NC1CCCC1)c1ccc(S(=O)(=O)N2CCc3ccccc32)cc1,"inconclusive: 15.8 µM [inhibitor, partial curve]",
O=C1/C(=C/c2cccs2)N=C(c2cccs2)N1Nc1ccccc1,"inconclusive: 35.5 µM [inhibitor, single point]",
CCOC(=O)C1=C(C)NC2=C(C(=O)CC(C)(C)C2)C1c1ccc2c(c1)CCCN2C (configuration not stated),"inconclusive: 2.82 µM [inhibitor, single point]",
Cc1nc2ccccc2n1C1CCN(CC(=O)Nc2ccccc2Br)CC1,"inconclusive: 20 µM [inhibitor, single point]",
COc1ccccc1OCC(O)CNCc1ccc2c(c1)OCO2 (configuration not stated),,inactive: 11.6%
Cc1ccc(OCCCCn2c(CCNC(=O)C(C)(C)C)nc3ccccc32)cc1,"inconclusive: 22.4 µM [inhibitor, single point]",
Cc1cccc(N2CCN(S(=O)(=O)c3ccc4[nH]c(=O)ccc4c3)CC2)c1C,"inconclusive: 35.5 µM [inhibitor, single point]",
O=C(CSc1ncnc2ccccc12)c1ccc2c(c1)OCCO2,,inactive: 0%
CC1=C(C(=O)OCc2ccc(C)cc2)C(c2ccccc2Cl)CC(=O)N1 (configuration not stated),"inconclusive: 17.8 µM [inhibitor, partial curve, poor fit]",
Cc1ccc(S(=O)(=O)N(CC(=O)NN=C2CCN(C)CC2)c2ccc(C(C)C)cc2)cc1,"inconclusive: 3.55 µM [inhibitor, single point]",
O=C(Cn1cc(C(F)(F)F)ccc1=O)Nc1cc(S(=O)(=O)N2CCOCC2)ccc1Cl,"inconclusive: 0.112 µM [inhibitor, full curve, poor fit]",

Compound,Potency,"activity, negative = inhibition"
CON(c1nc(Cl)nc(N(C)C)n1)S(=O)(=O)c1ccccc1Cl,"inconclusive: 22.4 µM [inhibitor, single point]",
COc1ccc(Cc2n[nH]c(=S)n2Cc2ccccc2)cc1Cl,,inactive: -10%
CC(C)C[C@H]1CN=C(Nc2ccccc2)N1CCCC1CCCC1,"inconclusive: 35.5 µM [inhibitor, single point]",
N#Cc1cn(Cc2ccco2)c(=O)[nH]c1=O,,inactive: 1.35%
COC(=O)COc1cc2ccccc2cc1C(=O)Nc1ccccc1,"inconclusive: 35.5 µM [inhibitor, single point]",
COc1ccc(C(=O)NC2CCCN(Cc3ccc(Cl)cc3)C2)c(OC)c1 (configuration not stated),"inconclusive: 35.5 µM [inhibitor, single point]",
COc1ccc(/C=N/OC(=O)Nc2ccc(Cl)cc2)c(OC)c1,,inactive: -13.8%
Cc1[nH]c2ccccc2c1/C=N/NC(=O)c1cc(-c2cccs2)[nH]n1,"inconclusive: 20 µM [inhibitor, single point]",
Cc1nnc(NC(=O)c2ccc3ccccc3n2)s1,"inconclusive: 35.5 µM [inhibitor, single point]",
CCOC(=O)C1=NNC(C(=O)OCC)C1c1ccccc1 (configuration not stated),"inconclusive: 11.2 µM [inhibitor, single point]",
O=C(COc1ccc(Cl)cc1)N1CCN(c2cccc(C(F)(F)F)c2)CC1,"inconclusive: 22.4 µM [inhibitor, single point]",
CC(C)c1ccc(-c2csc(NC(=O)c3cccs3)c2C(=O)O)cc1,"inconclusive: 22.4 µM [inhibitor, partial curve, poor fit]",
CCN(C1CCCCC1)S(=O)(=O)c1ccc(-n2cnnn2)c(C)c1,,inactive: 13.5%
NC(Cc1ccc(Cl)cc1)c1csc(Nc2cc(NCCCO)ncn2)n1 (configuration not stated),"inconclusive: 22.4 µM [inhibitor, single point]",
COc1ccc(-c2csc(Nc3ncccc3C)n2)cc1,,inactive: 0%
O=C(NNc1cccc(Cl)n1)c1ccccc1CC[N+](=O)[O-],,inactive: 0.407%
CCC(=O)NC(c1ccc(OC)c(OC)c1)c1cc(Cl)c2cccnc2c1O (configuration not stated),"inconclusive: 5.62 µM [inhibitor, full curve, poor fit] and inconclusive: 6.31 µM [inhibitor, partial curve, poor fit]",
C=C(C)Cn1c(C2CC(=O)N(Cc3ccccc3)C2)nc2ccccc21 (configuration not stated),"inconclusive: 12.6 µM [inhibitor, single point]",
C=C(C(=O)c1ccccc1)C(NC(C)(C)C)c1ccccc1 (configuration not stated),"inconclusive: 3.16 µM [inhibitor, full curve, poor fit]",
c1ccc2c(c1)OCC(c1nn3c(Cn4nnc5ccccc54)nnc3s1)O2 (configuration not stated),"inconclusive: 25.1 µM [inhibitor, single point]",
CC(=O)c1ccc(N2CCN(C(=O)CCCn3c(=O)[nH]c4ccc(Br)cc4c3=O)CC2)cc1,"inconclusive: 11.2 µM [inhibitor, partial curve, poor fit]",
